Results published in PubChem BioAssay AID445 (National Center for Advancing Translational Sciences (NCATS), 2006).
Hit rate of the full screen: of about 110,000 compounds, about 40 (0.04%) were called active. This list was built around the results that the source calls inconclusive (neither active nor inactive); the mix of calls is not that of the screen. Calls come from the whole dose curve; as a rule, active = well fitted curve in the direction sought with a large enough effect in the signal ratio (not every such curve was filed as active); inconclusive = small, poorly fitted or top-dose-only effect, or a change in a side signal; inactive = flat fitted curve, though single readings scatter; the % refers to the signal ratio. Potencies of inconclusive entries are doubtful fits and often do not repeat.

Assay: IkB Signaling;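 for IkBa stabilization activation: 0% = basal untreated cells and 100% = reference inhibitor full response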
Settings: ABC-DLBCL IkBa-CBG/CBR dual luciferase ratio (green luciferase fused to IkBa over red control in OCI-Ly3 lymphoma cells), 4 h; IkBa stabilization activation: at 57.1 µM (top of the series), scaled: untreated 0%, proteasome inhibitor 100% unless noted
Method in brief: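 Curves were fitted separately to fusion (green), unfused (red) and ratio luminescence, then classed by r2, magnitude and activity. Cells: OCI-Ly3, 4 h compound plus doxycycline at 37C; 10 uM MG-132 defined full response.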
Potency is the fitted concentration of half-maximal effect.

Row | SMILES | IkBa stabilization activation | Potency
1 | COc1ccc(Cl)cc1NC(=O)CSc1nc(=O)n(Cc2ccco2)c2c1CCC2 | inconclusive: 4.16% [signal inhibitor] | –
2 | Nc1ccc(O)cc1 | – | inconclusive: 25.1 µM [rising, partial curve]
3 | CCOC(=O)c1ccccc1NC(=O)c1cn(CC(C)C)c(=O)c2cc(OC)c(OC)cc12 | inconclusive: 4.27% [signal inhibitor] | –
4 | COc1ccc(OC)c(-c2noc(CSc3nnc(-c4ccccc4)n3-c3ccccc3)n2)c1 | inconclusive: -0.81% [signal inhibitor] | –
5 | CC(C)=C(C#N)c1nc2ccccc2s1 | – | inconclusive: 2 µM [signal inhibitor, full curve]
6 | Cc1ccc(NC(=O)Nc2nnc(SCC(=O)N3CCCCC3)s2)cc1 | inactive: -0.283% | –
7 | CC(C)c1ccc2c(c1)NC(c1ccc(F)cc1)=NC(c1cccs1)=N2 | inconclusive: -0.4% [signal inhibitor] | –
8 | Fc1ccc(-c2noc3ncnc(NCCc4ccc(Cl)cc4)c23)cc1 | inconclusive: 0.56% [signal inhibitor] | –
9 | COc1cccc(CNC(=O)N2CCc3c(sc4c3CCCC4)C2c2ccc(F)cc2)c1 (stereo unspecified) | inconclusive: 2.36% [signal inhibitor] | –
10 | Cc1ccc(C)n1-c1ccc(N2CCOCC2)cc1 | inconclusive: 16.7% | –
11 | Cc1cccc(C(=O)NCCc2nc3ccccc3n2Cc2ccccc2Cl)c1 | inconclusive: 1.07% [signal inhibitor] | –
12 | CN1CCN(c2ncnc3ccc(-c4ccccc4C(F)(F)F)cc23)CC1 | inactive: 0.173% [at 11.4 µM, scaled: untreated 0%, proteasome inhibitor 100%] | –
13 | CC(C)(C)NC(=O)[C@@H]1C[C@@H]2CCCC[C@@H]2CN1C[C@@H](O)[C@H](Cc1ccccc1)NC(=O)[C@H](CC(N)=O)NC(=O)c1ccc2ccccc2n1 | inconclusive: -4.55% [signal inhibitor] | –
14 | CCn1c2c(c(=O)n3ncc(C(=O)N4CCN(c5ccccc5)CC4)c13)CN(Cc1ccc(OC)cc1)CC2 | inactive: 1.86% | –
15 | COc1ccc(OC)c(C2C(C(=O)Nc3ccc(C)cc3C)=C(C)Nc3c(C(=O)Nc4ccc(F)cc4)cnn32)c1 (stereo unspecified) | inconclusive: 5.99% [signal inhibitor] | –
16 | COC(=O)c1ccc(NC(=O)c2c(NCc3cccc(F)c3)sc3c2CCCC3)cc1 | inconclusive: 2.55% [signal inhibitor] | –
17 | COc1ccc(N2C(=O)CC(Sc3nccc(C)n3)C2=O)cc1 (stereo unspecified) | inconclusive: 0.628% [signal activator] | –
18 | CCC(Oc1ccccc1F)C(=O)Nc1cc(-c2ccccc2)no1 (stereo unspecified) | inconclusive: -2.72% [signal inhibitor] | –
19 | COCC(=O)N1CCC2(CC1)CCN(c1ccc(-c3ccccc3)cc1)CC2 | inactive: 3% [at 11.4 µM, scaled: untreated 0%, proteasome inhibitor 100%] | –
20 | Cc1cccc(N2CCN(S(=O)(=O)c3cc(C(=O)Nc4ccc(Oc5ccccc5)cc4)ccc3F)CC2C)c1 (stereo unspecified) | inconclusive: 1.51% [signal inhibitor] | –
21 | CCCCN(C)CCNC(=O)c1nn(-c2ccc(OC)c(Cl)c2)c(=O)c2c1c1ccccc1n2C | inconclusive: -5.94% [signal inhibitor] | –

Row | SMILES | IkBa stabilization activation | Potency
22 | O=C(NCc1cccs1)c1cc(-c2cccc(Cl)c2)on1 | inconclusive: 13.4% [signal inhibitor] | –
23 | OC(CN1C2=NCCN2c2ccccc21)c1ccc2c(c1)OCO2 (stereo unspecified) | – | inconclusive: 39.8 µM [rising, single point]
24 | NCCSSCCN | inconclusive: 15.3% [signal activator] | –
25 | c1ccc(CCc2ccccc2-c2nc(-c3ccccn3)no2)cc1 | – | inconclusive: 31.6 µM [signal inhibitor, partial curve, poor fit]
26 | CCOc1cc(N2CCOCC2)c(OCC)cc1NC(=O)c1nc2nc(C)cc(C)n2n1 | inactive: -0.979% | –
27 | COc1ccc2c(C)c(CCC(=O)NCCc3ccccc3)c(=O)oc2c1 | inconclusive: 0.284% [signal inhibitor] | –
28 | COC(=O)C1=C(CS(=O)(=O)c2ccc(C)cc2C)NC(=O)NC1c1ccc(C)cc1 (stereo unspecified) | inconclusive: -0.0903% [signal inhibitor] | –
29 | Cc1cc2cc(CN(Cc3cccs3)Cc3nnnn3CC3CCCO3)c(=O)[nH]c2cc1C (stereo unspecified) | – | inconclusive: 31.6 µM [signal inhibitor, partial curve]
30 | COc1ccc(-c2cc(C(=O)N3CCN(C(c4ccccc4)c4ccccc4)CC3)no2)cc1OC | – | inconclusive: 20 µM [signal inhibitor, partial curve]
31 | Cc1cc(C)c(S(=O)(=O)NCc2ccc3c(c2)CCN3C(=O)c2ccccc2)c(C)c1 | inactive: 1.39% | –
32 | CCOc1ccccc1NC(=O)Cn1nnc(C(=O)NCc2cccs2)c1N | inconclusive: 15.4% [signal activator] | –
33 | CN(C)c1nc(-c2cccc(NS(C)(=O)=O)c2)nc2ccccc12 | inactive: -1.68% [at 11.4 µM, scaled: untreated 0%, proteasome inhibitor 100%] | –
34 | O=C(Cc1cc(=O)[nH]c(=O)[nH]1)NCCN1CCOCC1 | inactive: 0.706% | –
35 | COCCn1nnnc1C(c1ccccn1)N1CCN(c2cc(C)ccc2C)CC1 (stereo unspecified) | inactive: 1.18% | –
36 | CC(=O)N1c2ccccc2C(=O)C1N1CCN(c2ccc(Cl)cc2)CC1 (stereo unspecified) | inconclusive: 8.16% [signal inhibitor] | –
37 | Cc1cc(=O)[nH]c(S/C=C/c2ccccc2)n1 | – | inconclusive: 10 µM [signal inhibitor, partial curve]
38 | Cc1ccc(-c2nc(S(=O)(=O)c3ccc(F)cc3)c(N3CCN(c4ccccc4)CC3)o2)cc1 | inactive: -0.622% | –
39 | Cc1ccccc1Nc1nn2c(=O)c3ccc(C(=O)NCC(C)c4ccccc4)cc3nc2s1 (stereo unspecified) | inconclusive: -2.41% [signal inhibitor] | –
40 | COC(=O)c1cc(NC(=O)CSc2nnc(CN3CCOCC3)n2C)ccc1Cl | – | inconclusive: 25.1 µM [signal inhibitor, partial curve]
41 | COc1ccc(S(=O)(=O)N(CC(=O)NCCSc2ccc(C)cc2)c2ccc(C)cc2)cc1 | inconclusive: 3.74% [signal inhibitor] | –
